Measurements taken from PubChem BioAssay AID686971 (National Center for Advancing Translational Sciences (NCATS), 2013).
The campaign covered roughly 360,000 compounds. About 7,500 (2.1%) were called active. Inconclusive means that the source gave no clear call. Such entries were picked first, then a sample of the others. Calls follow the shape of the dose curve; as a rule, active = well fitted cell-killing curve with a large enough effect; inconclusive = small, poorly fitted or top-dose-only effect, or effect the other way, or another doubt; inactive = no such curve, though single readings can be large or run the other way. Potencies of inconclusive entries are left out as doubtful fits.

Test: qHTS for induction of synthetic lethality in tumor cells producing 2HG: qHTS for the HT-1080-IDH1KD cell line;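 as to activity, negative = toxicity: 0% = DMSO wells and -100% = cell-free medium wells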
Conditions: HT-1080 IDH1 knockdown viability, ATP luminescence, 48 h; activity, negative = toxicity: at 46.1 µM (top of the series) unless noted
How it was run: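 Viability of IDH1-knockdown HT-1080 fibrosarcoma cells was assessed by CellTiter-Glo after 48 h at 37 °C with titrated compound; concentration-effect curves were classified by fit quality and response size.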
Potency is read from the fitted curve at half-maximal effect; tags tell the direction and shape of the fitted curve.

Row | Structure (SMILES) | Potency | activity, negative = toxicity
1 | Cc1cc(C(=O)N/N=C/c2ccc(Cl)c([N+](=O)[O-])c2)c(C)n1-c1ccc(F)cc1 | active: 20.6 µM | 
2 | Cc1ccc2cc(CN(Cc3ccccc3)Cc3nnnn3C3CCCC3)c(=O)[nH]c2c1 | inconclusive [cytotoxic, single point] | 
3 | NC(=S)NN=Cc1nccc2ccccc12 | inconclusive [cytotoxic, full curve, poor fit] | 
4 | COc1cc(C2c3cc4c(cc3OC(NCCc3ccccc3)C2C)OCO4)cc(OC)c1OC (configuration not stated) | active: 1.03 µM | 
5 | O=C(O)C1CCCN1c1nc(Cl)ccc1[N+](=O)[O-] (configuration not stated) |  | inactive: -0.181%
6 | CCOc1ccc(OCCOC(=O)CNC(=O)c2ccc(Cl)cc2Cl)cc1 |  | inactive: -6.15%
7 | CCCC(=O)N1CCC1(C)C(=O)NS(=O)(=O)c1cccc(Cl)c1 (configuration not stated) | inconclusive [rising, single point] | 
8 | CCN(CC(=O)Nc1c(F)cccc1F)C(=O)CNC(=O)C1CCCCC1 |  | inactive: -3.5%
9 | Cc1cccc(N2CCN(C(=O)C3CCN(S(=O)(=O)c4c(C)noc4C)CC3)CC2C)c1 (configuration not stated) |  | inactive: 0%
10 | Cc1cc(C)c2cc(CN(CCO)C(=O)Nc3ccc(Cl)cc3)c(=O)[nH]c2c1 |  | inactive: -15.7%
11 | COc1cccc(CNc2ncc(-c3ccccc3)n2C)c1 | inconclusive [cytotoxic, single point] | 
12 | Cc1[nH]n(-c2cccc(Cl)c2)c(=O)c1-c1ccc(Cl)cc1 | inconclusive [cytotoxic, single point] | 
13 | COCCN(C(=O)COC(=O)c1ccc(Br)o1)c1c(N)n(Cc2ccccc2)c(=O)[nH]c1=O |  | inactive: -12.3%
14 | O=C1C=C(Nc2cccc3cccnc23)c2ccccc2C1=O | active: 2.06 µM | 
15 | COC(=O)c1cc(OC)c(OC)cc1NC(=S)NC(=O)c1ccco1 |  | inconclusive: -30.4% [cytotoxic]
16 | c1ccc(-c2cc(N3CCOCC3)nc3ccccc23)cc1 | inconclusive [cytotoxic, single point] | 
17 | CCc1ccccc1OCC(=O)Nc1nc(-c2cccnc2)cs1 | inconclusive [cytotoxic, partial curve] | 
18 | O=C(/C=C/c1ccccc1)NNC(=O)C1CC1 |  | inactive: 4.3%
19 | CCCOc1ccc(/C=N/Nc2cccc([N+](=O)[O-])c2)c(O)c1 | active: 13 µM | 
20 | O=C(NC1CCCCC1)c1ccc([N+](=O)[O-])o1 | inconclusive [cytotoxic, partial curve] | 
21 | CC(=O)N1c2ccc(S(=O)(=O)NCCC(=O)Nc3ncccc3C)cc2CC1C (configuration not stated) |  | inactive: 2.72%
22 | c1ccc(COc2ccc(CNCc3cccs3)cc2)cc1 | inconclusive [cytotoxic, single point] | 
23 | COc1ccc(NC(=O)N(C)C[C@H]2Oc3ccc(NC(=O)NC4CCCCC4)cc3C(=O)N([C@H](C)CO)C[C@@H]2C)cc1 |  | inactive: 1.99%
24 | COC(=O)[C@@]12C[C@@H](CC(=O)NCC3CCCCC3)C(=O)N(Cc3ccc4c(c3)OCO4)C1=CCC(C)(C)C2 | inconclusive [cytotoxic, partial curve] | 

Row | Structure (SMILES) | Potency | activity, negative = toxicity
25 | CC(C)n1ncc2c(C(=O)NCCOc3ccccc3F)cc(C3CC3)nc21 |  | inactive: -8.14%
26 | CCN(CC)c1c(C)nc2ccc(C(=O)Nc3cc(-c4ccccc4)ccc3OC)cn12 | inconclusive [cytotoxic, single point] | 
27 | Cc1sc2nc(C3CC3)nc(N3CCN(S(=O)(=O)c4ccc(F)cc4)CC3)c2c1C | inconclusive [rising, single point] | 
28 | Cc1noc(/C=C/c2ccccn2)c1[N+](=O)[O-] | inconclusive [cytotoxic, single point] | 
29 | COc1ccccc1P(=O)(Cc1ccccc1)c1ccccc1 (configuration not stated) |  | inactive: 9.35%
30 | Cc1ccc(NC(=O)/C=C/c2ccc([N+](=O)[O-])s2)c(C)c1 | active: 2.31 µM | 
31 | CC(CC(=O)N(CCC1=CCCCC1)c1c(N)n(Cc2ccccc2)c(=O)[nH]c1=O)c1ccccc1 (configuration not stated) | inconclusive [cytotoxic, single point] | 
32 | Clc1ccc(CN(CC2CCCO2)C(c2cccs2)c2nnnn2C2CCCC2)cc1 (configuration not stated) |  | inactive: -12.7%
33 | CCOc1ccc(Cn2c(=O)sc3ccccc32)cc1 |  | inactive: 0.0217%
34 | Cn1c(=O)c2cc(NC(=S)NCc3ccccc3F)ccc2n1Cc1ccccc1 |  | inactive: -2.42%
35 | CCOC(=O)c1c(C)n(C)c2ccc(O)c(CN(CC)CC)c12 |  | inactive: -0.483%
36 | COCCn1c(C)cc(C(=O)CSc2nc3ccccc3c(=O)[nH]2)c1C | inconclusive [cytotoxic, partial curve] | 
37 | CCOc1cc2[nH]c(=O)n(CCCCCC(=O)NCc3ccco3)c(=O)c2cc1OCC | inconclusive [cytotoxic, single point] | 
38 | Cc1cccc(N2CCN(S(=O)(=O)c3ccc4c(c3)NC(=O)CS4)CC2)c1C | inconclusive [cytotoxic, single point] | 
39 | O=C(C[C@H]1C/C=C\CC[C@H](Cc2ccc(F)cc2)C(=O)O[C@@H](c2ccccc2)CNC1=O)N[C@@H](CO)Cc1ccccc1 | inconclusive [cytotoxic, single point] | 
40 | CC(=O)c1cn(CC(=O)Nc2ccc(C)c(C)c2)c2ccccc12 |  | inactive: 1.86%
41 | N/C(CCS(=O)(=O)c1ccc(Cl)cc1)=N\OC(=O)c1ccccc1Cl | inconclusive [cytotoxic, single point] | 
42 | Cc1nn(Cc2ccc(C(=O)NN)cc2)c(C)c1Cl |  | inconclusive: -33.3% [cytotoxic]
43 | CCC(C)[C@H](NC(=O)N1CC(=O)Nc2ccccc21)C(=O)Nc1ccccc1C (some centres not stated) | inconclusive [cytotoxic, single point] | 
44 | Cc1oc(-c2ccccc2)cc1C(=O)NCc1ccncc1 | inconclusive [cytotoxic, single point] | 
45 | O=[N+]([O-])c1ccc(N=Nc2c(Cl)cc(O)cc2Cl)cc1 | active: 8.2 µM | 
46 | CSc1cccc(NC(=S)N2CCCN(Cc3cccc(Cl)c3)C2)c1 | inconclusive [cytotoxic, single point] | 
47 | O=C(N/N=C/c1ccccc1O)C(=O)Nc1ccccn1 | inconclusive [cytotoxic, single point] | 
48 | O=C(NCC1CCCCC1)c1ccc2nc([C@H]3C[C@H](O)[C@@H](CO)O3)[nH]c2c1 | inconclusive [rising, single point] | 

Row | Structure (SMILES) | Potency | activity, negative = toxicity
49 | COc1cc(SC)ccc1C(=O)NCCc1ccccc1 | inconclusive [cytotoxic, single point] | 
50 | O=C(CCc1nc2ccccc2c(=O)[nH]1)NCCN1C(=O)S/C(=C\c2ccc(Cl)cc2Cl)C1=O | inconclusive [cytotoxic, single point] | 
51 | Cc1c(/C=C(\C#N)c2nn(-c3ccccc3)c(N)c2C#N)c2ccccc2n1Cc1ccc(F)cc1 |  | inactive: 1.38%
52 | Cc1cc(C)c2nc(Cl)c(CN(Cc3ccco3)C(=O)Nc3ccccc3C)cc2c1 | active: 5.62 µM | 
53 | Cc1cccc(-n2c(C)cc(/C=C3/C(=N)N4C(c5ccccc5)=CSC4=NC3=O)c2C)c1 |  | inactive: 0.233%
54 | CC(=O)NNC(=O)c1[nH]c2ccc(Cl)cc2c1-c1ccccc1 | inconclusive [cytotoxic, single point] | 
55 | CCOC(=O)c1c(-c2ccc(C)cc2)csc1NC(=O)CCN1CC(C)OC(C)C1 (configuration not stated) | inconclusive [cytotoxic, single point] | 
56 | O=C(/C=C/c1ccco1)NC(=S)NNC(=O)c1ccco1 | inconclusive [cytotoxic, single point] | 
57 | Cn1nc(-c2ccccc2F)c2cc(C(=O)Nc3ccc4c(c3)OCCO4)sc21 | inconclusive [cytotoxic, single point] | 
58 | O=C(CSc1ncnc2c1oc1ccccc12)Nc1cccc(F)c1 |  | inactive: -16.2%
59 | CCOc1ccc(-c2nc(N)ncc2Oc2cccc(OC)c2)c(O)c1 | inconclusive [cytotoxic, single point] | 
60 | Cc1sc2ncnc(N/N=C/c3ccccc3O)c2c1C | inconclusive [cytotoxic, full curve] | 
61 | O=C(CN1C(=O)S/C(=C\c2cc(Cl)c(O)c(Cl)c2)C1=O)Nc1ccccc1 | inconclusive [cytotoxic, partial curve] | 
62 | COc1cc(C(=O)Nc2ccc(NC(=O)c3cccc(Cl)c3)nc2)cc(OC)c1OC |  | inconclusive: -30% [cytotoxic]
63 | Cc1cccc(N2CC(C(=O)NC3CCCCCC3)CC2=O)c1C (configuration not stated) |  | inconclusive: 30.6%
64 | CCC(OC(=O)c1nsc(Cl)c1Cl)C(=O)NCc1cccs1 (configuration not stated) | inconclusive [cytotoxic, full curve, poor fit] | 
65 | CCCOc1ccccc1/C=C1\SC(N2CCCCC2)=NC1=O | inconclusive [cytotoxic, partial curve] | 
66 | COCCCn1c(N)c(-c2nc3ccccc3n2C)c2nc3ccccc3nc21 | inconclusive [cytotoxic, single point] | 
67 | Oc1ccccc1-c1cc(-c2ccc(Cl)cc2)n[nH]1 | active: 16.4 µM | 
68 | N#C/C(=C\c1cc(Br)ccc1F)C(=O)NC1CC1 |  | inactive: 8.77%
69 | O=C(NCCN1CCN(c2ccccc2)CC1)c1cccn2c(=O)c3cc(Cl)ccc3nc12 |  | inactive: -3.86%
70 | Cc1cc(SCC(=O)NC2(C#N)CCCCC2)nc2c(C)cccc12 |  | inactive: 2.15%
71 | COc1ccc(/C=C/C(=O)NCC(=O)N/N=C/c2cc(Br)ccc2OC)cc1 | inconclusive [cytotoxic, partial curve] | 
72 | O=c1[nH]c(=O)n([C@H]2C[C@H](O)[C@@H](CO)O2)cc1F | active: 0.731 µM | 
